Test results: publication PMC4336329 (PLoS ONE, 2015)
The whole screen tested about 310,000 compounds, of which about 14,000 (4.5%) showed an effect of 50% or more. Effects have a minus sign here. Some of the results follow.

biological target: human ether-à-go-go-related gene (hERG) potassium channel (human, UniProt Q12809); experiment: primary screen, population patch clamp on CHO cells stably expressing hERG
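Note: peak tail current of the secondary pulse compared with the same well before compound.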

human ether-à-go-go-related gene (hERG) potassium channel, sequence (Q12809 whole entry, looked up): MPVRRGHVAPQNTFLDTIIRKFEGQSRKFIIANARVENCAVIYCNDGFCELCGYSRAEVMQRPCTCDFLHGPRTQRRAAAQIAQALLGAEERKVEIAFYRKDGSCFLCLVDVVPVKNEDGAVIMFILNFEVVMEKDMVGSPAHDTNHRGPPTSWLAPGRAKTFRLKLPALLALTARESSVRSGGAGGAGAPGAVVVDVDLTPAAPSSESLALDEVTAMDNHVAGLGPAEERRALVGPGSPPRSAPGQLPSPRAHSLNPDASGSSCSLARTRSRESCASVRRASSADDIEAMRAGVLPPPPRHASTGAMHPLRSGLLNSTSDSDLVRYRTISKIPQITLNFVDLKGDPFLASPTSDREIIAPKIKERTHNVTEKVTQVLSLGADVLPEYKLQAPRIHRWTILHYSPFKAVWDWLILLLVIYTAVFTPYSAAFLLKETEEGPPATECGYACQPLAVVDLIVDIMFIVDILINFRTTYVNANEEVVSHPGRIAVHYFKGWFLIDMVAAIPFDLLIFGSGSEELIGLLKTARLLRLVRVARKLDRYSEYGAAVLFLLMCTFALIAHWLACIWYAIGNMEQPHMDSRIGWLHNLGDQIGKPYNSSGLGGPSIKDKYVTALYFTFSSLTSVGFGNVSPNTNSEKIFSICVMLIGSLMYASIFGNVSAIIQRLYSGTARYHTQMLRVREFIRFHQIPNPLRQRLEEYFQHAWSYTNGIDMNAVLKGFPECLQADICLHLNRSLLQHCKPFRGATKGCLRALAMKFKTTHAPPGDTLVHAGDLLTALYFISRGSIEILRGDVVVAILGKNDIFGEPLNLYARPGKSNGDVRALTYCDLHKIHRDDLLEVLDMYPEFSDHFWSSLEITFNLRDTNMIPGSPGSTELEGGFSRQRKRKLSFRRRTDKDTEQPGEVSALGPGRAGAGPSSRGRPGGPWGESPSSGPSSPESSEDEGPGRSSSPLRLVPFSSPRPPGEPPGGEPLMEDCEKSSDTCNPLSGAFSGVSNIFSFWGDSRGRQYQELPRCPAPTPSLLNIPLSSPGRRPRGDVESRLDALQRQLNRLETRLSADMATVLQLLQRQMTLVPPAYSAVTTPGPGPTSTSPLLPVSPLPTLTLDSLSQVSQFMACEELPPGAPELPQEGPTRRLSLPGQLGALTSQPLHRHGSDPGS

Row | SMILES | hERG current change (%, negative = inhibition) at 10uM
1 | O=C(Nc1cc(C(F)(F)F)ccc1N1CCOCC1)C1CC1 | -5.99%
2 | CCN(CC)c1ccc(NC(=O)CCS(=O)(=O)c2cccc3nsnc23)c(C)c1 | 4.25%
3 | COc1nc(N)nc(N)c1NS(=O)(=O)c1ccc(C)cc1 | 12.1%
4 | Cc1ccc(C(=O)CSc2nnc(-c3ccncc3)n2C)cc1 | -3.2%
5 | COc1cccc(C(=O)N2N=C(c3ccccn3)CC2(O)C(F)(F)F)c1 (stereo not drawn) | 9.73%
6 | O=C(COc1ccccc1)Nc1ccc(N2CCN(C(=O)c3cccs3)CC2)cc1 | -10.9%
7 | C/C(=C\c1ccco1)C1Nc2cccc3cccc(c23)N1 | -5.56%
8 | CCOc1ccc(C2(C#N)CC[N+](C)(C)CC2)cc1.[Br-] | 2.83%
9 | O=C(N=Nc1c(O)[nH]c2ccccc12)c1cc(-c2cccs2)[nH]n1 | 2.84%
10 | O=C(Cc1c(O)c2ccccc2[nH]c1=O)N(Cc1ccccc1)Cc1ccccc1 | 3.37%
11 | COCCn1c(=O)c2c(nc3n2CC(C)CN3CCc2ccccc2)n(C)c1=O (stereo not drawn) | -56.6%
12 | O=C(O)/C=C/C(=O)N(Cc1ccccc1)Cc1ccco1 | -0.557%
13 | COc1ccc(NC(=S)NC23CC4CC(CC(C4)C2)C3)cc1OC | 3.45%
14 | CCc1nn(C)c2c(=O)c(=O)c2n(C)[nH]1 | 22.7%
15 | Cc1ccnc(N2CCCC(C(=O)Nc3nnc(C)s3)C2)n1 (stereo not drawn) | -6.99%
16 | COc1ccc(CN(C)CC(=O)NCC(=O)Nc2c(C)cccc2C)cc1 | -8.26%
17 | CCOc1cc2c(C#N)c(N3CCCCC3)nc(N)c2c(N)n1 | -9.7%
18 | COc1cccc(CNC(=O)c2ccc(Cl)c(NC3=NC4CS(=O)(=O)CC4S3)c2)c1 (stereo not drawn) | 13.4%
19 | O=C(CN1C(=O)NC2(CCCCC2)C1=O)Nc1ccc2[nH]c(=O)[nH]c2c1 | 8.6%
20 | COc1ccccc1NC(=O)Cc1nn(C)c(=O)c2ccccc12 | 3.08%
21 | Cc1nnc2sc(SCc3ccc(Br)cc3)nn2c1=O | 13.9%
22 | Cc1cc(NC(=O)c2sccc2C)n(-c2cccc(Cl)c2)n1 | -13.2%
23 | Cn1cnnc1SCC(=O)c1ccc(OC(F)F)cc1 | -31.1%

Row | SMILES | hERG current change (%, negative = inhibition) at 10uM
24 | CN1CCCC(CC2c3ccccc3Sc3ccccc32)C1.Cl.O (stereo not drawn) | -52.9%
25 | Cn1c(=O)n(C)c2cc(N3CCOCC3)c(NC(=O)c3cccc(Cl)c3)cc21 | 5.25%
26 | COc1ccc(Br)cc1CN(C)CC(=O)Nc1c(Cl)ccc(C)c1Cl | 4.92%
27 | C/C(CC1CC(COCC(C)C)OC1=O)=N\NC(N)=S (stereo not drawn) | 0.131%
28 | Fc1ccc(CCNC(=S)Nc2ccc(F)c(Cl)c2)cc1 | -16.4%
29 | CCn1cc(/C=N/NC(=O)c2ccc3c(c2)OCO3)cn1 | -7.39%
30 | CC(=O)NC1C(=O)N(CCN2CCOCC2)c2ccc(C)cc21 (stereo not drawn) | 10.6%
31 | CCOC(=O)c1cccc(NC(=O)CCS(=O)(=O)c2cccc3nsnc23)c1 | -10%
32 | CN(C)S(=O)(=O)N1CCN(C(=O)N2CCCCC2)CC1 | 3.64%
33 | CCOC(=O)c1c(NC(=O)CC2SC(N)=NC2=O)sc(C)c1C (stereo not drawn) | 9.2%
34 | CN(C)C(=O)c1noc2cc([N+](=O)[O-])ccc12 | -12%
35 | CC(=O)O[C@H]1C[C@@H]2CC[C@@H]3[C@H](CC[C@]4(C)C(=O)CC[C@@H]34)[C@@]2(C)C[C@@H]1OC(C)=O | 8.33%
36 | CN(CC(=O)Nc1ccccc1Cl)C(=O)COC(=O)C1=COCCO1 | 5.89%
37 | CSc1ccccc1NC(=O)CN(C)C(=O)c1ccc(-n2cccn2)cc1 | -17.6%
38 | CSc1nc2c(c(=O)[nH]1)C(c1ccc(F)cc1)CC(=O)N2 (stereo not drawn) | 17.2%
39 | COCCN1C(=O)N[C@@H](CCc2ccccc2)[C@H](C(=O)OC)[C@H]1C | 5.37%
40 | Cc1ccc(C(=O)C(O)C(c2ccc(C)cc2)N2CCCCC2)cc1 (stereo not drawn) | -21%
41 | Cc1cc2c(cc(C(=O)NCCCN3CCOCC3)n2Cc2ccc(Cl)cc2)o1 | -36.4%
42 | O=C(NC1CCCCC1)c1sc(=S)n2c1[nH]c(=O)c1ccccc12 | 15.8%
43 | C/C(CCC1CC(C)OC1=O)=N/Nc1nc(-c2ccccc2)cs1 (stereo not drawn) | -25.9%
44 | CC(C)C1CC(c2csc(N)n2)CCO1 (stereo not drawn) | 18.8%
45 | CCCC(=O)Nc1ccc(C(=O)/C=C/c2ccc(SC)cc2)cc1 | 20.7%
46 | O=C(NC1CCCCC1)n1c(=O)oc2ccccc21 | 1.4%

Row | SMILES | hERG current change (%, negative = inhibition) at 10uM
47 | CCOC(=O)C1CCN(c2c(NCc3ccc(N(C)C)cc3)c(=O)c2=O)CC1 | -5.97%
48 | CC(=O)Nc1ccc(SCC(=O)Nc2ccccc2Oc2ccccc2)cc1 | -7.17%
49 | CCOc1ccc(N(CC(=O)NCC2CCCO2)S(=O)(=O)c2ccc(SC)cc2)cc1 (stereo not drawn) | -41.7%
50 | COc1ccc(N2CCN(C(=O)c3cc(C4CC4)nn3-c3ccccc3)CC2)cc1 | -44.4%
51 | Cc1c(C(=O)NC(C)c2ccc(-n3ccnc3)cc2)cccc1[N+](=O)[O-] (stereo not drawn) | -74.1%
52 | COc1ccc(C(=O)NCCS(=O)(=O)N2CCN(C(=O)c3ccco3)CC2)cc1 | -38.6%
53 | COc1ccc(C(=O)NCCS(=O)(=O)N2CCc3ccccc3C2)cc1 | -3.39%
54 | COc1ccccc1NC(=O)CSc1nnc(-c2ccoc2C)n1CC1CCCO1 (stereo not drawn) | 6.73%
55 | Cn1cc(C(=O)C(F)(F)F)c2ccccc21 | -3.79%
56 | CC(C)(C)C(=O)O/N=C(\N)Cc1ccc(-c2csnn2)cc1 | 1.87%
57 | Cc1cc(N2CC(C)OC(C)C2)n2cc(-c3ccccc3)nc2n1 (stereo not drawn) | -61.7%
58 | CN(C)[C@@H]1CCC[C@H]1OC(=O)C(c1ccccc1)c1ccccc1 | -65.2%
59 | CC1C(=O)C(C)C(c2ccc(Cl)cc2)NC1c1ccc(Cl)cc1.Cl (stereo not drawn) | 9.52%
60 | CCN1CCCC1CN(Cc1cc2cc(C)ccc2[nH]c1=O)C(=O)Nc1ccccc1OC (stereo not drawn) | -60%
61 | CCCCc1c(C(=O)O)cc(OC)cc1C(=O)O | 10.6%
62 | CC(C)CNC(=O)C1CCN(S(=O)(=O)c2ccc3c(c2)OCCO3)CC1 | -0.124%
63 | COc1cc(NC(=O)c2cnc(NCc3ccccc3)nc2C)cc(OC)c1OC | 19.3%
64 | Cc1ccc(S(=O)(=O)Nc2ccc(NC(=O)c3c(F)c(F)c(F)c(F)c3F)cc2)cc1 | -5.01%
65 | O=C(CN1CCN(S(=O)(=O)c2ccccc2)CC1)Nc1ccc(N2CCOCC2)cc1 | 7.31%
66 | O=c1[nH]c(N2CCCCCC2)nc2ncn(Cc3ccccc3)c12 | -21.7%
67 | CC1(C)C(C=C(Cl)Cl)C1C(=O)N(Cc1ccc(Cl)cc1)C1CCS(=O)(=O)C1 (stereo not drawn) | -14.2%
68 | O=C(CNc1cccc2ccccc12)N/N=C/c1ccc(C(=O)O)cc1 | -0.125%
69 | Cc1cccc(NC(=O)CN2C(=O)NC3(CCCC3)C2=O)n1 | 6.63%

Row | SMILES | hERG current change (%, negative = inhibition) at 10uM
70 | Cc1cc(F)c(F)c(C(=O)N2CCC(C)CC2)c1Cl | -3.97%
71 | Br.CCCCn1c(=N)n(CC(=O)c2ccc(Br)s2)c2ccccc21 | -52.8%
72 | Cc1ccccc1OCC(O)Cn1nnc2ccccc21 (stereo not drawn) | 5.21%
73 | Cc1cc(C)cc(NC(=O)C(=O)NCC2CCCO2)c1 (stereo not drawn) | -13%
74 | CC(C)(C)c1ccc(-c2nc(C#N)c(NCc3cccnc3)o2)cc1 | 10.6%
75 | COc1cc(C(=O)NC(C)C2CC3CCC2C3)cc(OC)c1OC (stereo not drawn) | 2.69%
76 | O=C(CC(=O)Nc1ccccc1F)Nc1ccccc1F | 11.7%
77 | CN1CCC(=NNc2ccc(S(=O)(=O)N3CCOCC3)cc2[N+](=O)[O-])CC1 | 5.76%
78 | C#C[C@]1(O)CC[C@H]2[C@@H]3CCC4=Cc5oncc5C[C@]4(C)[C@H]3CC[C@@]21C | -15.3%
79 | CCN(CC)CCNC(=O)CNC(=S)N(CCCN1CCOCC1)Cc1cccs1 | 15.7%
80 | COc1ccccc1C(CNC(=O)CSc1ccc2ccccc2c1)N(C)C (stereo not drawn) | -34.9%
81 | Cc1ccc(NC(=O)CSc2n[nH]c(-c3ccncc3)n2)cc1 | -17.3%
82 | COC(=O)c1ccc(N2CCN(C(C)=O)CC2)c(NC(=O)c2cccnc2)c1 | 0.267%
83 | CCN(CC)S(=O)(=O)c1ccc(NS(=O)(=O)c2cccs2)cc1 | -11%
84 | COCC1CCCN(Cc2cn(-c3ccccc3)nc2-c2ccc3c(c2)OCO3)C1 (stereo not drawn) | -65.7%
85 | Brc1ccc(-c2cnco2)cc1 | 5.95%
86 | CN1CCN(c2ccc([N+](=O)[O-])cc2C(=O)c2ccc(Cl)cc2)CC1 | -67.4%
87 | COc1ccc(NS(=O)(=O)c2cccc(C(=O)N/N=C(\C)c3ccncc3)c2)cc1 | -12.7%
88 | O=C(NCc1ccc2c(c1)OCO2)c1cccc2c1C(=O)N(C1CCCCC1)C2 | 12%
89 | CCc1cc2c(N[C@@H](C)C(=O)O)ncnc2s1 | 1.08%
90 | CCNC(=O)COc1ccc(F)cc1C(=O)c1cnn(-c2ccccc2)c1 | -15.3%
